{"sequences": {"note": "Chains of the proteins cited; added tags and fusions are not shown. Lines headed by an entry give the natural chain unless they say otherwise; changes in a name come on top. A line that says so, or that is headed by a name, gives the form on record, which may keep a tag or linker.", "GAD-HsRAD50 head Glu5Ala (Q92878, form named)": "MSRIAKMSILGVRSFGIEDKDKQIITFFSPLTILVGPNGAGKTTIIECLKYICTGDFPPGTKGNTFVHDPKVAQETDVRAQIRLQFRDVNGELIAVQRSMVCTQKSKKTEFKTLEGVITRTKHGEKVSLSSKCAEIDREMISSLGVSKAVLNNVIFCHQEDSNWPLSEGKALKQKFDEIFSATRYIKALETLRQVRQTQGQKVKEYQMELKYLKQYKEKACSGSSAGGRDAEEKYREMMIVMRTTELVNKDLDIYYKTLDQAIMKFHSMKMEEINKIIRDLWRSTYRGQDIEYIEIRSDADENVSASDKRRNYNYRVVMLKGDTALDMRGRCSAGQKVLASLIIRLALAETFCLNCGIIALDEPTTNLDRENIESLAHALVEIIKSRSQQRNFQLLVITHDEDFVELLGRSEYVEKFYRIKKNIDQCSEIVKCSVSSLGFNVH", "GAD-HsRAD50 head Gln85Ala (Q92878, form named)": "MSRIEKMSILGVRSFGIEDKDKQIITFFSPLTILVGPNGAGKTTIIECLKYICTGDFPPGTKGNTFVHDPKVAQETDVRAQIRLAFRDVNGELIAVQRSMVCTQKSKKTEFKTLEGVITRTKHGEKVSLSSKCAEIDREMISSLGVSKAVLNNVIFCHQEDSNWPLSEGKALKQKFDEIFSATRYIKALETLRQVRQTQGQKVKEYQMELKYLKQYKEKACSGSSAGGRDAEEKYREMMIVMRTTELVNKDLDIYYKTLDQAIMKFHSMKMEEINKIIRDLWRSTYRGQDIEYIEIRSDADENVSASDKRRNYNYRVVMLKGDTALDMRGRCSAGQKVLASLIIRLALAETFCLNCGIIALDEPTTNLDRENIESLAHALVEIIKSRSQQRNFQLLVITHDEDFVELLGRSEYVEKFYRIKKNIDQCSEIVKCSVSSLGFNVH", "GAD-HsRAD50 head Arg83Glu (Q92878, form named)": "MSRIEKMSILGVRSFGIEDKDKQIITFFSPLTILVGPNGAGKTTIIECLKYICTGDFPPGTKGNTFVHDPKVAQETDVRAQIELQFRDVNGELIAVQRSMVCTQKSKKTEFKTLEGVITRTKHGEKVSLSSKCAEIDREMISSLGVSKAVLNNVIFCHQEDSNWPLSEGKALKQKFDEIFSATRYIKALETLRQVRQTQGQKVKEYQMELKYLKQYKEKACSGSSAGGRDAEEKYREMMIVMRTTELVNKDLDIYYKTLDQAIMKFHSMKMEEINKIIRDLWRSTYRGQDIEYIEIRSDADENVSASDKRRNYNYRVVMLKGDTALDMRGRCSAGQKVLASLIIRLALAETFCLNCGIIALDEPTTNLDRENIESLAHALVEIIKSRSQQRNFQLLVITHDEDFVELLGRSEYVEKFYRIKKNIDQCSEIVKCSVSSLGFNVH", "GAD-HsRAD50 head Val117Ala (Q92878, form named)": "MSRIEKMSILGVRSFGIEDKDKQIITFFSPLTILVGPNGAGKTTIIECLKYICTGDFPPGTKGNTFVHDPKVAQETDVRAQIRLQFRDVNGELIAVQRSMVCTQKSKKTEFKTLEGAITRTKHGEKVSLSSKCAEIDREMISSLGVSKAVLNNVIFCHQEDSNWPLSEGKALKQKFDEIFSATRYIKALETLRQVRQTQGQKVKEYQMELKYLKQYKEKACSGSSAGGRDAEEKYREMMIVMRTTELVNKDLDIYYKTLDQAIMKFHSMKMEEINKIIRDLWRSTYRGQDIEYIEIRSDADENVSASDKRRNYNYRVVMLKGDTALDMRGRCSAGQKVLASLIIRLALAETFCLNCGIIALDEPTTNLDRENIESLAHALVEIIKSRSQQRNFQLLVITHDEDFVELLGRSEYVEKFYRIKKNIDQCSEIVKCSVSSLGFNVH", "GAD-HsRAD50 head Asp19Ala (Q92878, form named)": "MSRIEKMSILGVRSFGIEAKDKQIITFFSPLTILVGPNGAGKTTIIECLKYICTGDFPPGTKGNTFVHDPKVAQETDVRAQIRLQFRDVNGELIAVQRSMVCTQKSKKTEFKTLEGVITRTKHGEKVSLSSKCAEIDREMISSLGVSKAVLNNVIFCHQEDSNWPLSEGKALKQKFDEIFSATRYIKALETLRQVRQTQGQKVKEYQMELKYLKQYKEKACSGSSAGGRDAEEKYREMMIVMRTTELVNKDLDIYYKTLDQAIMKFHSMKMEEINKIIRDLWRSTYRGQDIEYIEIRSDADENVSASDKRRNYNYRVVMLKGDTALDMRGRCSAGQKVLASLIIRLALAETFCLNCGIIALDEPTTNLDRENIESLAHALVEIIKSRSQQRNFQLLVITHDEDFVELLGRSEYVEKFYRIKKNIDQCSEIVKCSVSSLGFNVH", "GAD-HsRAD50 head Thr119Ala (Q92878, form named)": "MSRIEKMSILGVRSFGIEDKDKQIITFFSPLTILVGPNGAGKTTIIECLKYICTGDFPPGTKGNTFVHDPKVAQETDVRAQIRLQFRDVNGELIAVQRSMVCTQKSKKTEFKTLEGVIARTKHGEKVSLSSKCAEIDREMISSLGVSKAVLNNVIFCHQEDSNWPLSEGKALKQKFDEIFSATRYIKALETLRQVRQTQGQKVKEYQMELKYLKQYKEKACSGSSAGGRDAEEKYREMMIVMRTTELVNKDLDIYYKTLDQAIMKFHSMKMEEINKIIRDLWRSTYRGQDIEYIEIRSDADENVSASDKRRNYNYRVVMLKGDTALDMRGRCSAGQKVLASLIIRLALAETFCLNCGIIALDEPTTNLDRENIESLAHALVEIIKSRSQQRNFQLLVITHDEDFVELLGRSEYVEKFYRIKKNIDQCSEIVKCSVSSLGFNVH", "GAD-HsRAD50 head Lys112Ala (Q92878, form named)": "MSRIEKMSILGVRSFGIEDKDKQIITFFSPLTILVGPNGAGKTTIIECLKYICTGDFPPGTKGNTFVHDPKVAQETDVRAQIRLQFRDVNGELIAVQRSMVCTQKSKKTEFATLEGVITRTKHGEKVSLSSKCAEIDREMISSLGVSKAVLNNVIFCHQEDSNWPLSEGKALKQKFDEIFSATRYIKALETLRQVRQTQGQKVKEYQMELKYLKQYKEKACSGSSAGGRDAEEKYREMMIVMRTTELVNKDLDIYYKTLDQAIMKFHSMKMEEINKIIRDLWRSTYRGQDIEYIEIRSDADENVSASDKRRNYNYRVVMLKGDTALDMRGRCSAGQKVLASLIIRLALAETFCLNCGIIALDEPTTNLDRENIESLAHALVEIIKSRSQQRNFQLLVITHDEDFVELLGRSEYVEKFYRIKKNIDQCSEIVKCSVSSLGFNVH", "GAD-HsRAD50 head Leu93Ala (Q92878, form named)": "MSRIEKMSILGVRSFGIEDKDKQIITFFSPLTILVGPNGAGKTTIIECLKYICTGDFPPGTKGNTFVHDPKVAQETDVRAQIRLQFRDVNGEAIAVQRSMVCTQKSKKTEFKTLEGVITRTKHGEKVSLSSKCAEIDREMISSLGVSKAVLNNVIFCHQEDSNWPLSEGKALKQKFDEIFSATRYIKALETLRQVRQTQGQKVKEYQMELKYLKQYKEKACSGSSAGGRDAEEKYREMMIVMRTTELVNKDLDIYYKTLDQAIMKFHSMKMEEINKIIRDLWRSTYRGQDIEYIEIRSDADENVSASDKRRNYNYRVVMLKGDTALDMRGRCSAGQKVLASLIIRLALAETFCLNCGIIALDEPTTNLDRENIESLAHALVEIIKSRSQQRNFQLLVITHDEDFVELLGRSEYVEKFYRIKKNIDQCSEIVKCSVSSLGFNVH", "GAD-HsRAD50 head Ile24Ala (Q92878, form named)": "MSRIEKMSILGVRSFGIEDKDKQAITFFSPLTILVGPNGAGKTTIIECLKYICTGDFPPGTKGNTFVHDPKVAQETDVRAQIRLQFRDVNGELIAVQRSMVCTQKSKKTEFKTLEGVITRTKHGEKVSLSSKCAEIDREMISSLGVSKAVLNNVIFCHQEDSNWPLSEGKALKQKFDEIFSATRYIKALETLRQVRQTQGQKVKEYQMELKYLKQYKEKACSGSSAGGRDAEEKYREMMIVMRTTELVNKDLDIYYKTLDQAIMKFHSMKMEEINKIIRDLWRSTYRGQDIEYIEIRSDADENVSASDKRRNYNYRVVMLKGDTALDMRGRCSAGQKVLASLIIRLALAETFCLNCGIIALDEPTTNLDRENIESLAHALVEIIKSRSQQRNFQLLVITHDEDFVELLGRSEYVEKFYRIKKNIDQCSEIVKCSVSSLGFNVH", "GAD-HsRAD50 head Gln97Ala (Q92878, form named)": "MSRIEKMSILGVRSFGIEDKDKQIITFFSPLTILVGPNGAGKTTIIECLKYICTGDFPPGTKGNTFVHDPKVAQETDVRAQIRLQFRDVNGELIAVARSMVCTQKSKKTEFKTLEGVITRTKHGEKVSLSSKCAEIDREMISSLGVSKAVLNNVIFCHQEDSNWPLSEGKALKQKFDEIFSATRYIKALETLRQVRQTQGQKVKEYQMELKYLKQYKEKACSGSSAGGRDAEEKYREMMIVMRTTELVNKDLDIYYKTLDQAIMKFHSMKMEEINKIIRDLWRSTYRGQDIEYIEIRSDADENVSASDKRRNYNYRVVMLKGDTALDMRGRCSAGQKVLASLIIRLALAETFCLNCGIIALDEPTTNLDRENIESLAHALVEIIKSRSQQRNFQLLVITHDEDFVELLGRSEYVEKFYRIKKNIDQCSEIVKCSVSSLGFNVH", "GBD-HsRAD50 'head' (HsRAD50h), amino acids 1–221,1098–1312 separated by an SGSSAGG linker (Q92878, form named)": "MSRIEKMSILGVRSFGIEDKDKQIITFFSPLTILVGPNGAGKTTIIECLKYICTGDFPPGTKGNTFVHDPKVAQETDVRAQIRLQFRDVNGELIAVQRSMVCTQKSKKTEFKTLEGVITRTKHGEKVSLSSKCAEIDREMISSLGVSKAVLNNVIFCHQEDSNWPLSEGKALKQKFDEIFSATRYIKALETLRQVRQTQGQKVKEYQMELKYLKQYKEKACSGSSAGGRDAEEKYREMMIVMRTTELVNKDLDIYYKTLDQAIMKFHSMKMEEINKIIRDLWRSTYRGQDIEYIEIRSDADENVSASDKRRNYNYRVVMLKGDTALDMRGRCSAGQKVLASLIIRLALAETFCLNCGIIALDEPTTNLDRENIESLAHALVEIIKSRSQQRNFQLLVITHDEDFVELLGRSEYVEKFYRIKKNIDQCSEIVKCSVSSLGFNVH"}, "source": "paper PMC11260466", "about": "“Binding of the TRF2 iDDR motif to RAD50 highlights a convergent evolutionary strategy to inactivate MRN at telomeres”", "key": {"[1]": {"molecular_target": "HsCtIP amino acids 845–890 fused to the GBD domain of Gal4 (human) (UniProt Q99708)", "assay": "two-hybrid; HsCtIP fragments fused to GBD tested against GAD-HsRAD50 head (wild type or mutant); plates lacking histidine, stringency raised by 3-amino-1,2,4-triazole (3AT; 1 mM, 4 mM named)"}, "[2]": {"molecular_target": "T1, HsCtIP amino acids 849–888 fused to the GBD domain of Gal4 (human) (UniProt Q99708)", "T1 sequence": "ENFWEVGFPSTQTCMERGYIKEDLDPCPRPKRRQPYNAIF", "assay": "two-hybrid; HsCtIP fragments fused to GBD tested against GAD-HsRAD50 head (wild type or mutant); plates lacking histidine, stringency raised by 3-amino-1,2,4-triazole (3AT; 1 mM, 4 mM named)"}, "[3]": {"molecular_target": "HsCtIP 845–890 Phe856Ala, GBD fusion (human) (UniProt Q99708)", "assay": "two-hybrid; HsCtIP fragments fused to GBD tested against GAD-HsRAD50 head (wild type or mutant); plates lacking histidine, stringency raised by 3-amino-1,2,4-triazole (3AT; 1 mM, 4 mM named)"}, "[4]": {"molecular_target": "GBD-HsRAD50 'head' (HsRAD50h), amino acids 1–221,1098–1312 separated by an SGSSAGG linker (human) (UniProt Q92878)", "assay": "two-hybrid; GAD fusions tested against GBD-HsRAD50 head (wild type or mutant) in diploids of Y2HGold x Y187; 5-fold dilutions spotted on -LTH and, more stringent, -LTA plates; 30°C"}}, "note": "These are yes or no findings as the source states them, for the method shown. Some results given as binding are weak or reduced against the parent protein; the word gives no strength. For some of these results: Where a sequence is shown, tags or fusion partners need not be part of it."}
{"molecule": "GAD-HsRAD50 head Glu5Ala (from UniProt Q92878 1-221; Q92878 1098-1312) (domain or fragment)", "values": [{"measurement": "binding", "setting": "[1]", "value": "binds"}]}
{"molecule": "GAD-HsRAD50 head Gln85Ala (from UniProt Q92878 1-221; Q92878 1098-1312) (domain or fragment)", "values": [{"measurement": "binding", "setting": "[1]", "value": "binds"}]}
{"molecule": "GAD-HsRAD50 head Arg83Glu (from UniProt Q92878 1-221; Q92878 1098-1312) (domain or fragment)", "values": [{"measurement": "binding", "setting": "[1]", "value": "binds"}]}
{"molecule": "GAD-HsRAD50 head Val117Ala (from UniProt Q92878 1-221; Q92878 1098-1312) (domain or fragment)", "values": [{"measurement": "binding", "setting": "[1]", "value": "binds"}]}
{"molecule": "GAD-HsRAD50 head Asp19Ala (from UniProt Q92878 1-221; Q92878 1098-1312) (domain or fragment)", "values": [{"measurement": "binding", "setting": "[1]", "value": "binds"}]}
{"molecule": "GAD-HsRAD50 head Thr119Ala (from UniProt Q92878 1-221; Q92878 1098-1312) (domain or fragment)", "values": [{"measurement": "binding", "setting": "[1]", "value": "binds"}]}
{"molecule": "GAD-HsRAD50 head Lys112Ala (from UniProt Q92878 1-221; Q92878 1098-1312) (domain or fragment)", "values": [{"measurement": "binding", "setting": "[1]", "value": "binds"}]}
{"molecule": "GAD-HsRAD50 head Leu93Ala (from UniProt Q92878 1-221; Q92878 1098-1312) (domain or fragment)", "values": [{"measurement": "binding", "setting": "[1]", "value": "binds"}]}
{"molecule": "GAD-HsRAD50 head Ile24Ala (from UniProt Q92878 1-221; Q92878 1098-1312) (domain or fragment)", "values": [{"measurement": "binding", "setting": "[1]", "value": "binds"}]}
{"molecule": "GAD-HsRAD50 head Gln97Ala (from UniProt Q92878 1-221; Q92878 1098-1312) (domain or fragment)", "values": [{"measurement": "binding", "setting": "[1]", "value": "binds"}]}
{"molecule": "GAD-HsRAD50 'head' (HsRAD50h fused to the Gal4 GAD domain) (from UniProt Q92878 1-221; Q92878 1098-1312) (domain or fragment)", "values": [{"measurement": "binding", "setting": "[2]", "value": "binds"}, {"measurement": "binding", "setting": "[3]", "value": "binds"}, {"measurement": "binding", "setting": "[1]", "value": "binds"}]}
{"molecule": "HsCTC1 (protein, UniProt Q2NKJ3 1-1217) MAAGRAQVPSSEQAWLEDAQVFIQKTLCPAVKEPNVQLTPLVIDCVKTVWLSQGRNQGSTLPLSYSFVSVQDLKTHQRLPCCSHLSWSSSAYQAWAQEAGPNGNPLPREQLLLLGTLTDLSADLEQECRNGSLYVRDNTGVLSCELIDLDLSWLGHLFLFPRWSYLPPARWNSSGEGHLELWDAPVPVFPLTISPGPVTPIPVLYPESASCLLRLRNKLRGVQRNLAGSLVRLSALVKSKQKAYFILSLGRSHPAVTHVSIIVQVPAQLVWHRALRPGTAYVLTELRVSKIRGQRQHVWMTSQSSRLLLLKPECVQELELELEGPLLEADPKPLPMPSNSEDKKDPESLVRYSRLLSYSGAVTGVLNEPAGLYELDGQLGLCLAYQQFRGLRRVMRPGVCLQLQDVHLLQSVGGGTRRPVLAPCLRGAVLLQSFSRQKPGAHSSRQAYGASLYEQLVWERQLGLPLYLWATKALEELACKLCPHVLRHHQFLQHSSPGSPSLGLQLLAPTLDLLAPPGSPVRNAHNEILEEPHHCPLQKYTRLQTPSSFPTLATLKEEGQRKAWASFDPKALLPLPEASYLPSCQLNRRLAWSWLCLLPSAFCPAQVLLGVLVASSHKGCLQLRDQSGSLPCLLLAKHSQPLSDPRLIGCLVRAERFQLIVERDVRSSFPSWKELSMPGFIQKQQARVYVQFFLADALILPVPRPCLHSATPSTPQTDPTGPEGPHLGQSRLFLLCHKEALMKRNFCVPPGASPEVPKPALSFYVLGSWLGGTQRKEGTGWGLPEPQGNDDNDQKVHLIFFGSSVRWFEFLHPGQVYRLIAPGPATPMLFEKDGSSCISRRPLELAGCASCLTVQDNWTLELESSQDIQDVLDANKSLPESSLTDLLSDNFTDSLVSFSAEILSRTLCEPLVASLWMKLGNTGAMRRCVKLTVALETAECEFPPHLDVYIEDPHLPPSLGLLPGARVHFSQLEKRVSRSHNVYCCFRSSTYVQVLSFPPETTISIPLPHIYLAELLQGGQSPFQATASCHIVSVFSLQLFWVCAYCTSICRQGKCTRLGSTCPTQTAISQAIIRLLVEDGTAEAVVTCRNHHVAAALGLCPREWASLLDFVQVPGRVVLQFAGPGAQLESSARVDEPMTMFLWTLCTSPSVLRPIVLSFELERKPSKIVPLEPPRLQRFQCGELPFLTHVNPRLRLSCLSIRESEYSSSLGILASSC", "values": [{"measurement": "binding", "setting": "[4]", "value": "no binding"}]}
{"molecule": "HsSTN1 (protein, UniProt Q9H668 1-368) MQPGSSRCEEETPSLLWGLDPVFLAFAKLYIRDILDMKESRQVPGVFLYNGHPIKQVDVLGTVIGVRERDAFYSYGVDDSTGVINCICWKKLNTESVSAAPSAARELSLTSQLKKLQETIEQKTKIEIGDTIRVRGSIRTYREEREIHATTYYKVDDPVWNIQIARMLELPTIYRKVYDQPFHSSALEKEEALSNPGALDLPSLTSLLSEKAKEFLMENRVQSFYQQELEMVESLLSLANQPVIHSASSDQVNFKKDTTSKAIHSIFKNAIQLLQEKGLVFQKDDGFDNLYYVTREDKDLHRKIHRIIQQDCQKPNHMEKGCHFLHILACARLSIRPGLSEAVLQQVLELLEDQSDIVSTMEHYYTAF", "values": [{"measurement": "binding", "setting": "[4]", "value": "no binding"}]}
{"molecule": "HsTEN1 (protein, UniProt Q86WV5 1-123) MMLPKPGTYYLPWEVSAGQVPDGSTLRTFGRLCLYDMIQSRVTLMAQHGSDQHQVLVCTKLVEPFHAQVGSLYIVLGELQHQQDRGSVVKARVLTCVEGMNLPLLEQAIREQRLYKQERGGSQ", "values": [{"measurement": "binding", "setting": "[4]", "value": "no binding"}]}
